Experimental data published in PMC10234307.
These are yes or no findings as the source states them, for the method shown. In cells and extracts the contact can be indirect. Some results given as binding are weak or reduced against the parent protein; the word gives no strength.

The chains behind the UniProt entries cited, without tags or fusion partners.
UniProt P97500: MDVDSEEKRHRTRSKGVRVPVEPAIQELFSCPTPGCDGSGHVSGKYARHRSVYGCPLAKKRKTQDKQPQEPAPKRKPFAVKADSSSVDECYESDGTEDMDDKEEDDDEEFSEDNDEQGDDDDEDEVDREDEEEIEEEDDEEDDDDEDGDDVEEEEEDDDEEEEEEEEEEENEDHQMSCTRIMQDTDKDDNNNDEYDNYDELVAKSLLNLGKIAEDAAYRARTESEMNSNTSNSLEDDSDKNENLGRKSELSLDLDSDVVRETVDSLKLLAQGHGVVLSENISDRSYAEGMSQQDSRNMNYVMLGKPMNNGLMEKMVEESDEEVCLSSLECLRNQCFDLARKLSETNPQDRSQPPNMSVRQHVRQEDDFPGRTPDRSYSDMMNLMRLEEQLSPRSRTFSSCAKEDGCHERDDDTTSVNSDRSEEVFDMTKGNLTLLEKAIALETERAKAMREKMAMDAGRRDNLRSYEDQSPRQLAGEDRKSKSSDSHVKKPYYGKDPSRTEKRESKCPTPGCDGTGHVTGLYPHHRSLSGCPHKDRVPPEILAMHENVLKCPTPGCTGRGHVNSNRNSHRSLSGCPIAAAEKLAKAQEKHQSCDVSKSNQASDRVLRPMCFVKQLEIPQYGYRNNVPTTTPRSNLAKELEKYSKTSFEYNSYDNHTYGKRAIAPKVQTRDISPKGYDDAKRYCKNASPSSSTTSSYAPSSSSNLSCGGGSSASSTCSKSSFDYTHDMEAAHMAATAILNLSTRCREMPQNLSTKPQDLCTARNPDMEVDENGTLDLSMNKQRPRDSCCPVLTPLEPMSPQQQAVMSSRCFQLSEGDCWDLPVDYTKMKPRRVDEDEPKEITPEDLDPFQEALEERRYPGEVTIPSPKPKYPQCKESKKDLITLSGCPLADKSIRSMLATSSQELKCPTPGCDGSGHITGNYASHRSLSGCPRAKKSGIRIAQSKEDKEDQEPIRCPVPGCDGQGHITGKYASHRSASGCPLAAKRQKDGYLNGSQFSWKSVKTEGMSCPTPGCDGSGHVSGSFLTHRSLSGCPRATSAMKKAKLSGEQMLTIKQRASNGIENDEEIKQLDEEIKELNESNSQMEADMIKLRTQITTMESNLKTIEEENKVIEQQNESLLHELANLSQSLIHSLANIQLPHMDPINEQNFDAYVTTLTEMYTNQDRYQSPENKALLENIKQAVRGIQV
UniProt O09106: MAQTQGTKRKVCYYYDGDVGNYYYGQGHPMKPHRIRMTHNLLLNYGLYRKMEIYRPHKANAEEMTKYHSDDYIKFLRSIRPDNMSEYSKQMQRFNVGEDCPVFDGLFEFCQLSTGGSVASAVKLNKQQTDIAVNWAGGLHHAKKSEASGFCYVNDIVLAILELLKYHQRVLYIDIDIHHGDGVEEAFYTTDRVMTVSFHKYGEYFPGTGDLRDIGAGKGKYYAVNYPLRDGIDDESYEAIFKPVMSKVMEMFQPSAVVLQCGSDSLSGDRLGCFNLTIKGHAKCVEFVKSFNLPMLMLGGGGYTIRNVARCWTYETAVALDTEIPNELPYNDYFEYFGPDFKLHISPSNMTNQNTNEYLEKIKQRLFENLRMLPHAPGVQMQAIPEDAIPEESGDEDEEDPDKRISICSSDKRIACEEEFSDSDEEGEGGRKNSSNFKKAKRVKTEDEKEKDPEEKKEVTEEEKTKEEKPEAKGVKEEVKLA
UniProt P70288: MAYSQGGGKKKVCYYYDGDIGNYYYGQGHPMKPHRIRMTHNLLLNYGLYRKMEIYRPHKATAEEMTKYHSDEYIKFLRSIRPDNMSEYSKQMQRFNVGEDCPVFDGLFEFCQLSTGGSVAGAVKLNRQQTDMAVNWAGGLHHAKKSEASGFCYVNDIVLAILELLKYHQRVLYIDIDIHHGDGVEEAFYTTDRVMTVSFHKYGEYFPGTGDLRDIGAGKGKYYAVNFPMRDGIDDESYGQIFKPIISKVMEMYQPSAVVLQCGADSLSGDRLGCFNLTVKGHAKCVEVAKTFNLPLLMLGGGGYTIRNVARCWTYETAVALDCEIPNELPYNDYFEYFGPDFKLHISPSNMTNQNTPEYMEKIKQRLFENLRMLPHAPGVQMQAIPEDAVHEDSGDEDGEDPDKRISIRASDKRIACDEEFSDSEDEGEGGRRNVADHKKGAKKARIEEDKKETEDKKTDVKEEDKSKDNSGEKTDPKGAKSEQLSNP
UniProt Q6NZM9: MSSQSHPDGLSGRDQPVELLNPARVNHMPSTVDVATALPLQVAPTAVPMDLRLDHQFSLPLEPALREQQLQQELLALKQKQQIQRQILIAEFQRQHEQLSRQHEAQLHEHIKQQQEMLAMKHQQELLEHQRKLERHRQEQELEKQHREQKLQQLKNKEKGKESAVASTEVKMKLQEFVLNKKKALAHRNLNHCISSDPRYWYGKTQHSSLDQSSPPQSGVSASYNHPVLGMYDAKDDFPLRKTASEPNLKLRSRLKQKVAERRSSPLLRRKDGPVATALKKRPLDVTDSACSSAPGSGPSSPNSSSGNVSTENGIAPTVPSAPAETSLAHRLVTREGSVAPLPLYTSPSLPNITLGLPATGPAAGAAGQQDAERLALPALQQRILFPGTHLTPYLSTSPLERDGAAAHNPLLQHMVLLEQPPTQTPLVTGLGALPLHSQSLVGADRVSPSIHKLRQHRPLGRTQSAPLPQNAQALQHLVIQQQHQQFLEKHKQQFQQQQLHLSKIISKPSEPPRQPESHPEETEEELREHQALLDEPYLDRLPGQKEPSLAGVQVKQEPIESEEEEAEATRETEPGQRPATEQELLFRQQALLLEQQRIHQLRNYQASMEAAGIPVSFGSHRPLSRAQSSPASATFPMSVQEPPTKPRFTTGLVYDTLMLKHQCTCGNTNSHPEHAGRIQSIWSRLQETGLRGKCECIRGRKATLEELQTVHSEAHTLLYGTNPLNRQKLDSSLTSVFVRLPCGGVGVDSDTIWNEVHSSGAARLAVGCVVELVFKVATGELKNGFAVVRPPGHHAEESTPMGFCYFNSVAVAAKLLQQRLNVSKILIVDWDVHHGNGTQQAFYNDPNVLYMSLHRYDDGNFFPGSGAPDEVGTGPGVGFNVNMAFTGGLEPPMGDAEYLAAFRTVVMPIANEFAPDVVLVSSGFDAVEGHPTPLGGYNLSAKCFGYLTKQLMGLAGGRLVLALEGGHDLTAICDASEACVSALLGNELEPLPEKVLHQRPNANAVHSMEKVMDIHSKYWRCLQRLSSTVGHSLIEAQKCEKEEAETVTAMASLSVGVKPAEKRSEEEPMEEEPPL
UniProt Q60929: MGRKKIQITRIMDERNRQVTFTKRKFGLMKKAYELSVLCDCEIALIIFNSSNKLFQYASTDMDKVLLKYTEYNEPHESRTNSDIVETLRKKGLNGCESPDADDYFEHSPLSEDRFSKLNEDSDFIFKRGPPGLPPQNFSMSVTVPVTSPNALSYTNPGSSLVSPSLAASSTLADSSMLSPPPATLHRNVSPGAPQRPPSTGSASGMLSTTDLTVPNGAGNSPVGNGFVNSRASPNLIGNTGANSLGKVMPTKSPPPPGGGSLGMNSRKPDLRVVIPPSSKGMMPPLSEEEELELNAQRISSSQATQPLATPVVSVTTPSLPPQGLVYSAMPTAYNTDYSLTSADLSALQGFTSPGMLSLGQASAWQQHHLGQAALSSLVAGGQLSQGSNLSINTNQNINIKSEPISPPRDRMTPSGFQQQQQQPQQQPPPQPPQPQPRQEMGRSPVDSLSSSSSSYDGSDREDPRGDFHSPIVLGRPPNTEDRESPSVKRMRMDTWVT

B1: SIN3B (protein, UniProt Q62141 1-1098)
chain: MAHAGSGGSAGRGFGGSRWGRSGSGGHEKLPVHVEDALTYLDQVKIRFGSDPATYNGFLEIMKEFKSQSIDTPGVIRRVSQLFHEHPDLIVGFNAFLPLGYRIDIPKNGKLNIQSPLSSQDNSHSHGDCGEDFKQMSYKEDRGQVPLESDSVEFNNAISYVNKIKTRFLDHPEIYRSFLEILHTYQKEQLHTKGRPFRGMSEEEVFTEVANLFRGQEDLLSEFGQFLPEAKRSLFTGNGSCEMNSGQKNEEKSLEHNKKRSRPSLLRPVSAPAKKKMKLRGTKDLSIAAVGKYGTLQEFSFFDKVRRVLKSQEVYENFLRCIALFNQELVSGSELLQLVSPFLGKFPELFAQFKSFLGVKELSFAPPMSDRSGDGISREIDYASCKRIGSSYRALPKTYQQPKCSGRTAICKEVLNDTWVSFPSWSEDSTFVSSKKTPYEEQLHRCEDERFELDVVLETNLATIRVLESVQKKLSRMAPEDQEKLRLDDCLGGTSEVIQRRAIHRIYGDKAPEVIESLKRNPATAVPVVLKRLKAKEEEWREAQQGFNKIWREQYEKAYLKSLDHQAVNFKQNDTKALRSKSLLNEIESVYDEHQEQHSEGRSAPSSEPHLIFVYEDRQILEDAAALISYYVKRQPAIQKEDQGTIRQLLHRFLPSLFFSQQCPGTSDDSADERDRDRDSAEPERRRPTDEKPPADASPEPPKVLDDVYSLFFANNNWYFFLRLHQTLCARLLKIYRQAQKQLLEHRREQEREQLLCEGRREKAADPAMELRLKQPSEVELEEYYPAFLDMVRSLLEGSIDPTQYEDTLREMFTIHAYIGFTMDKLVQNIARQLHHLVSDDVCLKVVELYLNEQQRGAAGGNLSSRCVRAARETSYQWKAERCMADENCFKVMFLQRRGQVIMTIELLDTEEAQTEDPVEVQHLARYVEQYVGSEGASSSSTEGFLLKPVFLQRNLKKFRRWQCEQVRAMRGEAKSSWKRLMGVESACDVDCRFRLGTHKMVFIVNSEDYMYRRGTLCRAKQVQPLVLLRHHRHFEEWHGRWLEDNVTVAAAGLVQDWLMGEEEEDMVPCKTLCETAHVHGLPVTRYRVQYSRRPASP

Target: myelin transcription factor 1-like (MYT1L) (mouse (endogenous in P1 cortex)) (UniProt P97500)
Experiment: co-IP; rabbit anti-MYT1L (Proteintech 25234-1-AP) on Protein A or G Dynabeads, incubated with precleared WT C57BL/6J P1 mouse cortex lysate (150 mM NaCl, 50 mM Tris, 1% Triton X-100, protease inhibitors) at 4°C overnight; four washes with lysis buffer; immunoblot for candidate cofactors; rabbit IgG as control

binding | Molecule
no binding | HDAC1 (from UniProt O09106 1-482) (enzyme)
binds | HDAC2 (from UniProt P70288 1-488) (enzyme)
no binding | HDAC4 (from UniProt Q6NZM9 1-1076) (enzyme)
no binding | MEF2A (from UniProt Q60929 1-498)
binds | B1
